PubChem BioAssay AID463173 (ICCB-Longwood Screening Facility, Harvard Medical School, 2010)
Out of some 52,000 compounds screened, about 1,700 (3.3%) were called active. Cut-off read from the data, not from the text of the source: active = survival mostly below about 52% (no sharp cut-off); inactive = mostly above about 56%. This is one part of the list.

test system: Wild type; assay: growth inhibition of S. aureus wild type versus tarO mutant, primary screen, teichoic acid synthesis inhibitors, RN4220, OD600 (AID 463173); settings: S. aureus RN4220 wild type/DeltatarO growth, OD600, 18 h, stronger effect = lower value, screened at 18.75 µg/mL (by protocol)

| Structure (SMILES) | survival |
| --- | --- |
| Cn1c(CCc2nc3ccccc3[nH]2)nnc1SCC#N | inactive: 103% |
| CCn1nnnc1SCC(=O)Nc1ccccc1 | inactive: 102% |
| COc1ccc(C(=O)NCC(=O)OCc2cc(=O)n3nc(C4CCCCC4)sc3n2)cc1 | inactive: 72% |
| Cc1ccccc1-c1nc(CS(=O)(=O)CC(=O)NCCCN2CCN(C)CC2)c(C)o1 | inactive: 80% |
| Cc1nn(-c2ccccc2)c2sc(C(=O)N(Cc3ccco3)C(C)C(=O)NC3CCCCC3)cc12 (stereo not given) | inactive: 102% |
| COc1ccc(NC(=O)CSc2nncn3c2cc2occc23)c(OC)c1 | inactive: 89% |
| COc1ccc(-n2nnc(-c3nc(-c4ccc5c(c4)OCO5)no3)c2C)cc1Cl | inactive: 90% |
| NC(=O)c1ccccc1NC(=O)COCC(=O)O | inactive: 108% |
| CCOCC(=O)Nc1nc2ccccc2s1 | inactive: 106% |
| CCOC(=O)c1ccc(NC(=O)CCc2c(C)nc3cc(-c4ccc(OC)cc4OC)nn3c2C)cc1 | inactive: 93% |
| Cc1ccc(SCCNC(=O)CN(c2cccc(C)c2C)S(C)(=O)=O)cc1 | inactive: 67% |
| COc1cc(C(=O)Nc2ccc(-c3nc4cc(C)c(C)cc4o3)cc2)cc(OC)c1OC | inactive: 74% |
| CC(C)Oc1ccc(C(=O)N2CCC(c3nc4ccccc4s3)CC2)cc1 | inactive: 82% |
| CC1=C(C(=O)NCc2cccc(Cl)c2)C2(CCCCCC2)OC1=O | inactive: 87% |
| CCOC(=O)c1c(C)oc2nc(C)nc(NCCc3ccc(OCC)cc3)c12 | inactive: 70% |
| CC(=O)Nc1ccc(S(=O)(=O)N2CCC(n3c(C)nc4cccnc43)CC2)cc1 | inactive: 76% |
| CCC(C)NC(=O)Cn1c(=O)n(-c2cc(OC)cc(OC)c2)c(=O)c2ccccc21 (stereo not given) | inactive: 94% |
| COc1ccc(NC(=O)CCCc2nnc3n(C(C)C)c(=O)c4sccc4n23)cc1Cl | inactive: 104% |
| Cc1ccc2c(CNCCc3ccco3)c(C(=O)O)n(Cc3ccc(F)cc3)c2c1 | inactive: 66% |
| CCOc1ccc(CN(CCc2ccc3c(c2)OCO3)Cc2cc(OC)cc(OC)c2)cc1 | inactive: 57% |
| O=C(CSc1nccn1Cc1ccco1)Nc1ccc(OC(F)(F)F)cc1 | inactive: 73% |
| Cc1cc(=O)[nH]c2nnc(SCc3cccc(C(F)(F)F)c3)n12 | inactive: 127% |
| CCOc1ccc(NC(=O)Cn2cc(C(=O)C3CC3)c3ccccc32)cc1 | inactive: 78% |

| Structure (SMILES) | survival |
| --- | --- |
| CCN1CCC(N(Cc2ccc(F)cc2)C(=O)Nc2ccc(C)c(F)c2)CC1 | inactive: 87% |
| COc1ccc(C(=O)Nc2ccc(-c3nc4cc(C)ccc4o3)c(O)c2)cc1 | inactive: 76% |
| CC(C)c1ccc(NC(=O)Cn2nnc(C(=O)NCCc3ccccc3)c2N)cc1 | inactive: 82% |
| COc1cc(Cl)c(NC(=O)CN2C(=O)c3cccnc3Sc3ccccc32)c(OC)c1 | inactive: 72% |
| Cc1nc(N2CCOCC2)c2c(C(=O)N3CCN(c4cccc(C(F)(F)F)c4)CC3)c(C)oc2n1 | inactive: 79% |
| COc1ccc(NC(=O)C(Cc2ccccc2)NS(=O)(=O)c2ccc3c(c2)oc(=O)n3C)c(OC)c1 (stereo not given) | inactive: 158% |
| Cc1cccc2nc(-c3ccc(Cl)s3)c(Nc3ccc4c(c3)OCCO4)n12 | inactive: 74% |
| COc1ccc(OC(=O)c2cc(-c3ccc4c(c3)OCCO4)on2)cc1 | inactive: 109% |
| Cc1ccc(C)c(NC(=O)CSc2cn(CC(=O)N3CCCCC3)c3ccccc23)c1 | inactive: 100% |
| CCOc1ccc(NC(=O)Cn2c(=O)nc(-c3ccccc3)c3ccccc32)cc1 | inactive: 80% |
| Cc1ccc(OCC(=O)OCc2cc(=O)n3ccsc3n2)cc1C | inactive: 64% |
| COc1ccccc1N1CCN(c2ncc3c(n2)CCN(Cc2ccccc2C)C3)CC1 | inactive: 63% |
| Cc1nc2ccc(S(=O)(=O)NCC(=O)NCc3ccc(Cl)cc3)cc2s1 | inactive: 85% |
| Cc1nn(-c2ccccc2)c(-n2cccc2)c1C(=O)NCCCN1CCN(c2ccccc2F)CC1 | inactive: 76% |
| CC1CCN(S(=O)(=O)c2ccc3[nH]ccc3c2)CC1 | inactive: 89% |
| Brc1ccc(-c2cn3cc(Cc4ccccc4)sc3n2)cc1 | inactive: 74% |
| O=C1NC(NS(=O)(=O)c2ccccc2)(C(F)(F)F)C(=O)N1CCc1ccccc1 (stereo not given) | inactive: 83% |
| CCOc1ccc(-c2cc3nc(C4CCN(C(=O)OC(C)(C)C)CC4)c(C(=O)Nc4cccc(Cl)c4C)cn3n2)cc1 | inactive: 88% |
| Cn1cc(CCCC(=O)NCc2ccc(F)cc2)c2ccccc21 | inactive: 86% |
| CCOC(=O)c1ccc(NC(=O)c2noc3c2CCCC3)cc1 | active: -2% |
| CCN(c1ccccc1)c1ncnc2c1cnn2-c1ccc(OC)cc1 | inactive: 64% |
| Cc1ccc2[nH]c3c(=O)n(CC(=O)N4CCN(c5ccccc5F)CC4)ncc3c2c1 | inactive: 63% |
